The supplement of paper PMC4166925
± gives the standard deviation of the averaged measurements. In all, about 33,000 sequences were measured (“E-score (dimensionless, -0.5 to 0.5)”: median about -0.046, highest 2% from about 0.36 on). The list shows a part of the results.

These sequences were tested on T1, SpTbr T-box DNA-binding domain (GST fusion) (assay: PBM E-score of 8-mer (E-score (dimensionless, -0.5 to 0.5)); Tbr is Tbrain of the sea star Patiria miniata (Pm) or the sea urchin Strongylocentrotus purpuratus (Sp); higher = stronger binding preference; most listed sequences are background and not binding sites). Conditions: the construct has about 5 more residues each side.
T1 sequence: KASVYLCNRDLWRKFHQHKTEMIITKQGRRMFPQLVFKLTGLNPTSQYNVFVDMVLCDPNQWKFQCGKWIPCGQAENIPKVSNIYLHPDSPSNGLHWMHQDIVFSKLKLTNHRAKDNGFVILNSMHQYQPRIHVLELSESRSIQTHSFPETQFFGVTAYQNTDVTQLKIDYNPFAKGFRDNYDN
Outline: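 Primer extension turned Universal Agilent oligonucleotide arrays double-stranded. They were incubated with 200 nM protein in PBS (pH 7.5); the protein was a GST-fused Tbr T-box DNA-binding domain expressed in BL21 E. coli at 20 °C and purified on glutathione. Every ungapped 8-mer was scored from the scanned, quantified probe intensities, and the Universal PBM Analysis Suite gave each an enrichment E-score averaged over duplicate arrays.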

| Sequence | PBM E-score of 8-mer |
| --- | --- |
| GTGAGCTA | 0.00722 ± 0.013 |
| AAGAAATC | -0.193 ± 0.04 |
| CCCCGTGA | 0.0419 ± 0.024 |
| CGCAGGTC | 0.0308 ± 0.0051 |
| GAGAATAA | 0.118 ± 0.0021 |
| AAACTAGC | -0.155 ± 0.057 |
| GGATAAAC | -0.0975 ± 0.024 |
| AAAGCACA | 0.0829 ± 0.029 |
| GGTTACAA | 0.0273 ± 0.066 |
| AACGGGCG | 0.16 ± 0.027 |
| AATACATA | -0.00454 ± 0.11 |
| AACCTGCA | -0.103 ± 0.068 |
| TATAAATA | -0.167 ± 0.0029 |
| GGGTTTAC | 0.0179 ± 0.066 |
| ATACCTAA | 0.0493 ± 0.055 |
| ATACGCCG | -0.0834 ± 0.026 |
| AGCGAGTA | 0.0903 ± 0.024 |
| CTGAGACC | -0.22 ± 0.0077 |
| GATCTCAA | 0.0536 ± 0.028 |
| ACTGGCAC | 0.234 ± 0.019 |
| AGTGCCAA | 0.359 ± 0.0081 |
| GGATGGCC | -0.231 ± 0.008 |
| GCTCATGA | -0.147 ± 0.068 |
| GAGGGGTA | -0.14 ± 0.082 |
| AGAGCGAA | -0.0554 ± 0.085 |

| Sequence | PBM E-score of 8-mer |
| --- | --- |
| CATTAGAC | -0.214 ± 0.019 |
| AATGCGTC | 0.0536 ± 0.068 |
| CGGCTACC | -0.112 ± 0.01 |
| CTGGCTCC | -0.178 ± 0.053 |
| AGAGCCTC | -0.168 ± 0.0022 |
| GTTCCTTA | -0.0268 ± 0.02 |
| ACGGGAAG | -0.0949 ± 0.038 |
| CAGAGTAA | 0.0139 ± 0.072 |
| CAGAGATA | -0.098 ± 0.025 |
| TCATCGCA | 0.264 ± 0.028 |
| AGAGGCAG | -0.121 ± 0.079 |
| AATAGTGA | 0.0198 ± 0.057 |
| AGGGAGTG | 0.233 ± 0.029 |
| AGCACGTG | 0.241 ± 0.041 |
| ACTAGCCC | -0.16 ± 0.038 |
| AACTGTAT | -0.112 ± 0.043 |
| CCTCATAG | -0.0788 ± 0.034 |
| CCAGGAAG | -0.149 ± 0.0075 |
| GCTAGTAC | 0.0899 ± 0.098 |
| AGGCAACT | -0.109 ± 0.049 |
| TATCCTCA | 0.176 ± 0.009 |
| AAGGGACC | -0.0351 ± 0.055 |
| AACGAAAT | 0.0374 ± 0.056 |
| ACAACACA | 0.349 ± 0.0079 |
| CAACCGAA | -0.0342 ± 0.021 |

| Sequence | PBM E-score of 8-mer |
| --- | --- |
| GCGGGTAC | 0.0188 ± 0.012 |
| ACGGTAAG | -0.178 ± 0.082 |
| AGAATGGC | 0.00479 ± 0.045 |
| ACAGCCAT | -0.0859 ± 0.01 |
| AGTTCGAT | -0.0203 ± 0.1 |
| AATGGGGG | -0.382 ± 0.027 |
| AAGAAAGC | 0.00357 ± 0.021 |
| AACTCCGT | -0.0754 ± 0.066 |
| ACAGAGAT | -0.098 ± 0.015 |
| CACGCACG | 0.206 ± 0.036 |
| ATTGGGTG | 0.204 ± 0.019 |
| ATTTTGCC | -0.225 ± 0.032 |
| CATCGTGG | 0.0693 ± 0.016 |
| ACCGTGGG | -0.107 ± 0.0042 |
| TGCAGTAA | 0.0597 ± 0.014 |
| GTCCGGAA | -0.29 ± 0.012 |
| ACTAGGCA | -0.204 ± 0.036 |
| AGGTCGCA | 0.273 ± 0.024 |
| AGGAGGGA | -0.0901 ± 0.053 |
| GTTTCAAA | -0.327 ± 0.079 |
| GACACCAC | 0.367 ± 0.039 |
| AGATAAAT | -0.202 ± 0.017 |
| ACGGCAGC | 0.0417 ± 0.0037 |
| CGTAGTGA | -0.0348 ± 0.0029 |
| ACATACTC | -0.0738 ± 0.027 |

| Sequence | PBM E-score of 8-mer |
| --- | --- |
| AATGTAGC | -0.0814 ± 0.0015 |
| GTCACTCA | 0.185 ± 0.047 |
| CAGGCGGA | -0.224 ± 0.12 |
| TAAAGAGA | -0.0999 ± 0.018 |
| ACTGCGTG | 0.0105 ± 0.014 |
| GCAATCTA | 0.0376 ± 0.013 |
| GCAGCTCA | 0.052 ± 0.0014 |
| CAGCGATC | 0.0455 ± 0.057 |
| TGATAACA | 0.33 ± 0.025 |
| GGAACGCC | 0.177 ± 0.024 |
| ACGGCCTG | -0.094 ± 0.0062 |
| CCACCTGA | 0.148 ± 0.02 |
| AACACCGC | 0.299 ± 0.018 |
| AAAATCAA | -0.0885 ± 0.034 |
| ATCACTAC | 0.0564 ± 0.0073 |
| TGTCTTAA | -0.0342 ± 0.045 |
| AGTTCGGA | -0.17 ± 0.042 |
| ATTTGCAA | -0.0431 ± 0.044 |
| CTGGTCTC | -0.133 ± 0.035 |
| GAACTGAC | -0.051 ± 0.017 |
| GCAACCAC | 0.0127 ± 0.092 |
| ACCCATTG | -0.161 ± 0.036 |
| ACGTTGCC | 0.144 ± 0.019 |
| CCACTAAA | -0.031 ± 0.016 |
| ACAACGCA | 0.114 ± 0.034 |

| Sequence | PBM E-score of 8-mer |
| --- | --- |
| AGTTGGAG | -0.148 ± 0.075 |
| CGCCTCAG | 0.342 ± 0.011 |
| ATTTGATC | -0.257 ± 0.038 |
| AATACCCC | -0.256 ± 0.066 |
| CCTAGAAC | -0.18 ± 0.034 |
| CCTATCTA | -0.225 ± 0.03 |
| AAAACCAG | 0.0656 ± 0.013 |
| ATGGAATA | -0.0847 ± 0.081 |
| ATCCGTCG | -0.0129 ± 0.041 |
| TAATCCCA | -0.1983 ± 0.00057 |
| GATTGGAC | -0.0797 ± 0.038 |
| AGCAACAA | 0.1945 ± 0.00053 |
| ACGGTGAT | 0.115 ± 0.028 |
| CAACGCGC | 0.156 ± 0.019 |
| AATATCTC | -0.0127 ± 0.0054 |
| ATATTGCG | 0.0678 ± 0.068 |
| ACTCATTA | 0.0559 ± 0.0024 |
| ACAGAGCA | -0.249 ± 0.025 |
| GTCCTCGA | -0.0351 ± 0.064 |
| AGATGCGA | 0.112 ± 0.032 |
| CTCCGGGA | -0.21 ± 0.0071 |
| CCAAGAGA | -0.235 ± 0.06 |
| CATCTGCG | -0.0623 ± 0.075 |
| AGTTGAAA | -0.136 ± 0.059 |
| CGTTTTGA | -0.0628 ± 0.05 |

| Sequence | PBM E-score of 8-mer |
| --- | --- |
| CCGACAAG | 0.115 ± 0.018 |
| ATATGTGA | 0.242 ± 0.055 |
| CCCTCTCC | -0.0898 ± 0.048 |
| CCAGTGGA | -0.133 ± 0.022 |
| CTTCACAC | 0.4852 ± 0.00088 |
| AGGTTCAA | -0.133 ± 0.055 |
| ATAGTAGG | -0.15 ± 0.033 |
| TACCTAAA | -0.0995 ± 0.054 |
| GGGCGGAC | -0.0766 ± 0.012 |
| CTGTGCGC | -0.147 ± 0.091 |
| GTTGAAAC | 0.0361 ± 0.01 |
| TGGCACAA | 0.187 ± 0.035 |
| ATAACTGA | 0.0983 ± 0.016 |
| GAGTAATA | -0.134 ± 0.12 |
| ACATTACT | 0.0205 ± 0.034 |
| AGACTCTC | -0.0738 ± 0.045 |
| CCATTAAC | 0.142 ± 0.06 |
| TCGTGGAA | 0.027 ± 0.11 |
| AAGAAGCC | -0.0621 ± 0.039 |
| CGAGATTA | 0.142 ± 0.031 |
| AGTTAGGC | -0.069 ± 0.049 |
| AACGTCAT | -0.103 ± 0.045 |
| AGCATCAA | -0.083 ± 0.055 |
| ACGTCCGG | -0.246 ± 0.021 |
| GGGCTTTA | -0.244 ± 0.044 |

| Sequence | PBM E-score of 8-mer |
| --- | --- |
| CACTTGTC | 0.375 ± 0.012 |
| ACGCTGAA | -0.105 ± 0.01 |
| GTCCAACA | 0.165 ± 0.011 |
| CTTATGGC | -0.0704 ± 0.031 |
| AAGACCGT | -0.145 ± 0.015 |
| CTAGCCGA | 0.0301 ± 0.045 |
| GCGCCTCC | 0.196 ± 0.018 |
| TAACTCCA | -0.0619 ± 0.015 |
| AGTCCCGA | -0.224 ± 0.0093 |
| CTCGCTGC | 0.0382 ± 0.037 |
| ATGGGATG | -0.035 ± 0.011 |
| ACCTAAGG | 0.0643 ± 0.025 |
| ATTTTCGC | 0.223 ± 0.0094 |
| CTGGCACA | 0.1856 ± 0.00035 |
| CAAATGAC | -0.0483 ± 0.02 |
| AATAGCAC | 0.316 ± 0.049 |
| GCGTAGTA | -0.0459 ± 0.072 |
| AACTCAAC | -0.0393 ± 0.04 |
| GCCAGGCC | -0.217 ± 0.036 |
| GTCATCAA | 0.0423 ± 0.0043 |
| AAGCGAGA | 0.0545 ± 0.065 |
| ACCTCGGA | 0.114 ± 0.011 |
